Among the data in the supplement of paper PMC9588766 are cell viability values, retold here.

Where a name gives a salt, the structure may show the parent alone. ± gives the standard deviation of the averaged measurements. In all, about 2,000 compounds were measured (“cell viability relative to DMSO control (compound alone)”: median about 0.98, lowest 2% from about 0.23 on). The list shows a part of the results.

In this assay the test system is PDC-DUC18828. Briefly: cell viability relative to DMSO control (compound alone) (fraction); PDC-DUC18828 is a patient-derived cholangiocarcinoma cell line; higher = less growth inhibition. As to conditions: 1 µM; 72 h. How it is done:
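Selleck Bioactive library screen in the patient-derived FGFR2-G3BP2 fusion-positive ICC cell line PDC-DUC18828 (500 cells/well). Each compound was tested at 1 uM alone, in triplicate, for 72 h. Viability was read by CellTiter-Glo and normalised to plate DMSO controls.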
`O=P1(NCCCl)OCCCN1CCCl` (stereo not drawn) [Ifosfamide] came in with a cell viability of 0.976 ± 0.038.

`NC(=O)CN1CCCC1=O` [Piracetam]: the cell viability was found to be 0.962 ± 0.018.

`CN[C@@H]1C[C@H]2O[C@@](C)([C@@H]1OC)n1c3ccccc3c3c4c(c5c6ccccc6n2c5c31)C(=O)NC4` [Staurosporine] came in with a cell viability of 0.121 ± 0.0086.

Consider `O=C(O[C@H]1C[N+]2(CCCOc3ccccc3)CCC1CC2)C(O)(c1cccs1)c1cccs1` [Aclidinium Bromide], for which the cell viability was determined as 1.03 ± 0.048.

In the case of `Cc1cc(SCc2sc(-c3ccc(C(F)(F)F)c(F)c3)nc2C)ccc1OCC(=O)O`, the cell viability came out at 1.04 ± 0.014.

Compound `CC(C)(C)[C@]1(O)CC2OC(=O)CC23C(=O)OC2OC(=O)[C@H](O)C231` (stereo partly drawn) [Bilobalide] showed a cell viability of 0.866 ± 0.014.

For `CC[C@@H]1/C=C/C=C/C[C@H](C)[C@H](O)[C@](C)(O)C(=O)[C@H](C)[C@@H](O)[C@H](C)C(=O)[C@H](C)[C@@H](O)[C@H](C)/C=C/C(=O)O[C@H]2[C@@H](C)[C@@H](CC1)O[C@@]1(CC[C@@H](C)[C@@H](C[C@H](C)O)O1)[C@@H]2C` [Oligomycin A], the cell viability came to 0.74 ± 0.047.

In turn, `O=C(Oc1ccc([N+](=O)[O-])cc1)N1CCC(C(O)(c2ccc3c(c2)OCO3)c2ccc3c(c2)OCO3)CC1` showed a cell viability of 1 ± 0.063.

Turning to `Cc1cccc(C)c1NC1=NCCCS1` [Xylazine HCl], the cell viability was found to be 1.05 ± 0.018.

With `O=C1CCC[C@@H]2[C@H]3CCCN4CCC[C@@H](CN12)[C@@H]34` [(+)-Matrine], the cell viability was determined as 1.01 ± 0.031.

Turning to `Cc1c(Cl)c(OCC(=O)N2CCN(C)CC2)nc2sc(C(=O)NC3CC3)c(N)c12`, the cell viability is 1 ± 0.084.

As to `C[C@@H]1CC[C@H]2[C@@H](C)C(=O)O[C@@H]3O[C@@]4(C)CC[C@@H]1[C@]32OO4` [Artemisinin], the cell viability was 0.974 ± 0.072.

Compound `COc1ccc2c(c1)/C(=C/c1cnc[nH]1)C(=O)N2` yielded a cell viability of 0.933 ± 0.053.

`COc1ccc(C[C@H]2NC[C@H](O)[C@H]2OC(C)=O)cc1` [Anisomycin] came in with a cell viability of 0.234 ± 0.0077.

`NCCc1c[nH]c2ccc(O)cc12` [Serotonin HCl]: the cell viability was 0.967 ± 0.03.

`CCC(COC(=O)c1cc(OC)c(OC)c(OC)c1)(c1ccccc1)N(C)C` (stereo not drawn) [Trimebutine] gave a cell viability of 1.04 ± 0.036.

With `C/C=C(\C)C(=O)N[C@@H](c1ccccc1)[C@@H](O)C(=O)O[C@H]1C[C@@]2(O)[C@@H](OC(=O)c3ccccc3)[C@@H]3[C@]4(OC(C)=O)CO[C@@H]4C[C@H](O)[C@@]3(C)C(=O)[C@H](OC(C)=O)C(=C1C)C2(C)C` [Cephalomannine], the cell viability worked out at 0.24 ± 0.011.

With `C[C@@]12N[C@@H](Cc3ccccc31)c1ccccc12` [(-)-MK 801 Maleate], the cell viability is 1.04 ± 0.067.

The compound `NCC(=O)O.[C-]#[O+].[C-]#[O+].[C-]#[O+].[Cl][Ru]` registered a cell viability of 0.981 ± 0.028.

`C#C[C@]1(O)C=C[C@H]2[C@@H]3CCC4=CC(=O)CC[C@@H]4[C@H]3CC[C@@]21CC` [Gestodene] showed a cell viability of 0.983 ± 0.016.

The compound `Cc1cccc([C@H](C)c2c[nH]cn2)c1C` [Dexmedetomidine] came in with a cell viability of 0.973 ± 0.037.

As to `CC(=O)Nc1ccc(OC[C@](C)(O)C(=O)Nc2ccc([N+](=O)[O-])c(C(F)(F)F)c2)cc1` [Andarine], the cell viability was determined as 0.891 ± 0.044.

`C[C@](O)(COc1ccc(C#N)cc1)C(=O)Nc1ccc(C#N)c(C(F)(F)F)c1` registered a cell viability of 1.05 ± 0.022.

In the case of `C[C@]12N[C@H](Cc3ccccc31)c1ccccc12` [MK-801 (Dizocilpine)], the cell viability stood at 0.971 ± 0.031.

Turning to `C[C@]12CC[C@H]3[C@@H](CC[C@@]45O[C@@H]4C(O)=C(C#N)C[C@]35C)[C@@H]1CC[C@@H]2O` [Trilostane], the cell viability stood at 1.07 ± 0.026.

Regarding `CC(C)N(CCNC(=O)CN1CCCC1=O)C(C)C` [Pramiracetam], the cell viability came to 0.946 ± 0.063.

In turn, `CNCC(=O)c1ccc(O)c(O)c1` [Adrenalone HCl] came in with a cell viability of 0.971 ± 0.024.

Compound `COC(=O)C1=CCCN(C)C1` [Arecoline] displayed a cell viability of 1.05 ± 0.064.

Turning to `CCC1(c2ccc(N)cc2)CCC(=O)NC1=O` (stereo not drawn) [Aminoglutethimide], the cell viability was 1.02 ± 0.013.

The compound `CCN(C)C(=O)Oc1cccc([C@H](C)N(C)C)c1` [Rivastigmine Tartrate] yielded a cell viability of 1.07 ± 0.019.

In turn, `CN(C)C(=O)Oc1cc(OC(=O)N(C)C)cc(C(O)CNC(C)(C)C)c1` (stereo not drawn) [Bambuterol HCl] registered a cell viability of 1.01 ± 0.04.

Take `C[N+]1(C)[C@@H]2C[C@@H](OC(=O)[C@H](CO)c3ccccc3)C[C@H]1[C@@H]1O[C@@H]12` [Methscopolamine]: the cell viability worked out at 0.996 ± 0.022.

`C[C@]12CC[C@H](O)C[C@@H]1CC[C@@H]1[C@@H]2CC[C@]2(C)C(=O)CC[C@@H]12` [Epiandrosterone]: the cell viability was 0.985 ± 0.042.

The compound `NCC(O)c1ccc(O)cc1` (racemic) [(+,-)-Octopamine HCl] returned a cell viability of 1.06 ± 0.071.

The compound `C[C@@H]1O[C@@H](O[C@H]2C[C@@H](O)[C@]3(CO)[C@H]4[C@H](O)C[C@]5(C)[C@@H](C6=CC(=O)OC6)CC[C@]5(O)[C@@H]4CC[C@]3(O)C2)[C@H](O)[C@H](O)[C@H]1O` [Ouabain] returned a cell viability of 0.127 ± 0.0066.

`CN(C)Cc1c[nH]c2ccccc12` [Gramine] showed a cell viability of 0.919 ± 0.044.

The compound `O=C(O)CCCc1ccc(N(CCCl)CCCl)cc1` [Chloroambucil] yielded a cell viability of 0.878 ± 0.054.

`CC[C@@H](C(N)=O)N1CCCC1=O` [Levetiracetam] returned a cell viability of 0.932 ± 0.011.

The compound `O=C(O[C@H]1C[C@H]2CC[C@@H](C1)[N+]21CCCC1)C(O)(c1ccccc1)c1ccccc1` [Trospium chloride] had a cell viability of 0.8822 ± 0.0019.

With `COc1ccc(C(=O)N2CCCC2=O)cc1` [Aniracetam], the cell viability was 0.937 ± 0.052.

In turn, `COc1cc([C@@H]2c3cc4c(cc3[C@H](O)[C@H]3COC(=O)[C@@H]23)OCO4)cc(OC)c1OC` [Picropodophyllin (PPP)] came in with a cell viability of 0.499 ± 0.015.

`C1=C2CCCN[C@H]2[C@@H]2C[C@H]1[C@H]1CCCCN1C2` [Aloperine]: the cell viability amounted to 0.836 ± 0.079.

Regarding `CN1CCC(c2c[nH]c3ccc(O)cc23)CC1`, the cell viability was found to be 0.962 ± 0.024.

With `NC(=O)CN1CC(O)CC1=O` (stereo not drawn) [Oxiracetam], the cell viability was found to be 0.965 ± 0.083.

On to `CC[C@@]1(O)C(=O)OCc2c1cc1n(c2=O)Cc2cc3ccccc3nc2-1` [Camptothecin], for which the cell viability turned out to be 0.182 ± 0.014.

For `CN1c2ccccc2C(NCCCCCCC(=O)O)c2ccc(Cl)cc2S1(=O)=O` (stereo not drawn) [Tianeptine sodium], the cell viability amounted to 0.968 ± 0.011.

`CC(C)=CCC[C@]1(C)C=Cc2c(O)c3c(c(CC=C(C)C)c2O1)O[C@]12C(=C[C@@H]4C[C@H]1C(C)(C)O[C@@]2(C/C=C(/C)C(=O)O)C4=O)C3=O` [Gambogic Acid] returned a cell viability of 0.0678 ± 0.029.

For `CCNC(=O)C[C@@H]1N=C(c2ccc(Cl)cc2)c2cc(OC)ccc2-n2c(C)nnc21`, the cell viability came out at 0.882 ± 0.054.
